# From publication PMC6919601, “Identification of Plasmodium dipeptidyl aminopeptidase allosteric inhibitors by high throughput screening” (PLoS ONE, 2019)
# “And” between values parts separate entries of the source, which are not always exact repeats. Equal values may be shown once. The whole screen tested about 110,000 compounds, of which about 230 (0.21%) showed an effect of 50% or more. Some of the results follow.
# Target: DPAP1 (Plasmodium falciparum, UniProt Q8IIJ9)
# Experiment: primary screen, percent inhibition; read by cleavage of a fluorogenic dipeptide substrate; higher = more effect of the substance
# Design: species or system P. falciparum D10 trophozoite lysates; single well
# 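Also: 30 min substrate incubation versus DMSO and 10 µM JCP410 controls.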
# Chain of DPAP1 (Q8IIJ9 whole entry, looked up): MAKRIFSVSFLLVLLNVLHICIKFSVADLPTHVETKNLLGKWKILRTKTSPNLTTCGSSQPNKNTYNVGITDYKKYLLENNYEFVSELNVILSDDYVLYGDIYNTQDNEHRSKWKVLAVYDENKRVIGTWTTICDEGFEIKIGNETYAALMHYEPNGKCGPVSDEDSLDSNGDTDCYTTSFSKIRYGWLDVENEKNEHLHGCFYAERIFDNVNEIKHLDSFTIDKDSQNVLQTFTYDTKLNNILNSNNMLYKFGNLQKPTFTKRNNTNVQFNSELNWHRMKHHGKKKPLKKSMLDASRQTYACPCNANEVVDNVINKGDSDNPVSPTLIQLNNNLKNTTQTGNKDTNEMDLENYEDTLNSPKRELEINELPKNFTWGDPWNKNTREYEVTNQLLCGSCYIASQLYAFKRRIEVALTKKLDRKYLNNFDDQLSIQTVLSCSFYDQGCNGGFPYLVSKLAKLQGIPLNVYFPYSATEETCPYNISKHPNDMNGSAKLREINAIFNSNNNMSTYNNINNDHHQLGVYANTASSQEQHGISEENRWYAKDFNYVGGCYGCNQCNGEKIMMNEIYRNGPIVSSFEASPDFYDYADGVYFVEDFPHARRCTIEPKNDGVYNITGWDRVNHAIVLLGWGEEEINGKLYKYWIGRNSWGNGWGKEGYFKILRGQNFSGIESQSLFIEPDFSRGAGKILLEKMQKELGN
row,SMILES,% Inhibition @ 10 uM
1,Cc1ccc(S(=O)(=O)NCc2nnc(NC(=O)c3ccc(Br)cc3)s2)cc1,-7.3%
2,N#CCc1ccc(NC(=O)COc2ccc(Cl)cc2Cl)cc1,-0.891%
3,COc1ccc2nc(O)c(NC(N)=S)nc2c1,1.89%
4,OCCN1CCN(CC2CC3C=CC2C3)CC1 (stereo not drawn),2.91%
5,Brc1ccccc1CN1CCN(Cc2c[nH]c3ccccc23)CC1,-6.57%
6,COCCN1C(=O)c2oc3cc(C)c(C)cc3c(=O)c2C1c1ccccc1F (stereo not drawn),3.93%
7,CCOCCCNC(=O)c1ccc(CS(=O)Cc2ccc(C)cc2)o1 (stereo not drawn),0.401%
8,COc1ccc(C2=N/C(=C\c3coc4ccccc4c3=O)C(=O)O2)cc1,-3.44%
9,C#CCOc1c(Br)cc(C2C(C#N)=C(N)OC3=C2C(=O)CC(C)(C)C3)cc1OCC (stereo not drawn),3.62%
10,COc1ccccc1Oc1cc(-n2nc(SC)c(C#N)c2N)ncn1,-3.16%
11,Cn1nc(C(=O)NC2CCN(Cc3ccccc3)CC2)c2c1-c1ccccc1SC2,-3.51%
12,O=C(O)c1ccccc1-n1c(=O)c2cc3c(=O)n(-c4ccccc4C(=O)O)c(=O)c3cc2c1=O,-1.42%
13,CCCN(CCC)C(=O)CSc1nc2nnc(C)c-2c(N)n1-c1ccc(C)c(C)c1,0.992%
14,COc1cccc(C(=O)c2ccc(O)cc2)c1,-0.215%
15,COc1cccc(C2CC(c3c(O)cc(C)oc3=O)=Nc3ccccc3S2)c1O (stereo not drawn),-3.62%
16,Cc1cccc2c1C(C)(c1ccccc1)CC(C)(C)N2C(=O)Cc1ccccc1 (stereo not drawn),0.467%
17,COc1c(C)cccc1C(=O)Nc1ccc(CN2CCOCC2)cc1,-8.41%
18,CCN(CC)S(=O)(=O)c1ccc(-c2cn3cc(Cl)ccc3n2)cc1,-4.28%
19,O=c1c2ccccc2n2c(-c3cccs3)nnc2n1CCc1ccccc1,-5.6%
20,CC(=O)OC1CSc2nc3ccccc3n2C1 (stereo not drawn),5.16%
21,NC(=O)c1ccccc1-c1ccccc1C(=O)O,-1.97%
22,CCCCC[C@H](NC(=O)c1ccccc1)C(=O)NCC#N,-6.98%
23,Cc1nn(C(C)C(=O)N2CCc3ccccc3C2)c(=O)c2c1sc1ccccc12 (stereo not drawn),3.3%
24,CCCN(CCC)C(=O)Cn1ncn2c(cc3ccccc32)c1=O,-7.22%
25,CN(C)CCC/N=c1\cc(-c2ccccc2)oc2ccc(Cl)cc12,2.24%
26,Cc1cc(N2CCC(C(=O)Nc3cccnc3Cl)CC2)n2nc(C)c(-c3ccc(Cl)cc3)c2n1,-1.89%
27,COC(=O)c1ccc(OCC2c3cc(OC)c(OC)cc3CCN2C(=O)c2c(F)cccc2F)cc1 (stereo not drawn),-0.812%

row,SMILES,% Inhibition @ 10 uM
1,O=C1c2ccccc2C(=O)N1OCCSc1nc2ccccc2s1,-1.33%
2,CCOCCCNCc1ccc(OCCC(C)C)c(OC)c1,3.66%
3,CCOC(=O)N1CCN(C(=O)C2CCN(S(=O)(=O)c3ccccc3)CC2)CC1,0.147%
4,CCOC(=O)c1c(C)[nH]c(C)c1S(=O)(=O)NCC(=O)N1CCCN(Cc2ccc(F)cc2)C1,-1.95%
5,CCOc1ccc(NC(=O)Nc2ccc(Cl)c(Cl)c2)cc1,4.6%
6,Cc1ccc(NC(=O)c2ccc3c(c2)c(C)c(C)n3Cc2ccccc2)cc1,3.47%
7,CC(C)C(=O)N1c2ccccc2N=C2CC(C)(C)CC(O)=C2C1c1cccnc1 (stereo not drawn),-2.46%
8,Fc1ccc(CN2CCN(c3ccc(F)cc3)CC2)cc1,1.63%
9,Cc1nnc2sc(-c3cnccn3)nn12,-2.84%
10,O=C(C1CCCCC1)N1CC(=O)N(CCc2ccccc2)C(O)C1 (stereo not drawn),-2.5%
11,CCOC(=O)C1=C(c2ccccc2)N=C(S)NC1CC (stereo not drawn),1.13%
12,CCCCN(CCCC)Cc1c(C(=O)O)[nH]c(=O)[nH]c1=O,0.565%
13,Cc1ccccc1Cn1c(C(=O)O)c(CNC2CCN(Cc3ccccc3)CC2)c2ccccc21,3.54%
14,O=C(O)C1CCCCC1C(=O)NC1CCCCC1 (stereo not drawn),1.62%
15,O=C(CCNC(=O)c1ccc(Br)o1)NCc1ccccn1,-0.502%
16,CC1CCN(C(=O)COc2ccc3ccccc3c2Br)CC1,-4.68%
17,Clc1ccc(N2CCN(Cc3ccoc3)CC2)cc1,-4.35%
18,COc1ccc(CC(=O)N(C)c2ccccc2)cc1,-1.62%
19,CCC(C)N(CCNC(=O)c1noc2c1COc1ccc(C)cc1-2)Cc1ccco1 (stereo not drawn),-4.07%
20,O=C(Cc1ccc(Cl)c(Cl)c1)N1N=C(C(F)F)CC1(O)C(F)F (stereo not drawn),-1.88%
21,O=C(O)Cc1csc2ccccc12,-3.53%
22,COc1ccccc1/C=C/c1ccccc1OC,2.03%
23,CN(CC(=O)Nc1ccc(C(F)(F)F)cc1)S(=O)(=O)c1ccc(Cl)cc1,5.15%
24,CCOC(=O)c1cnc(-c2ccccc2)nc1Nc1ccccc1,-2.36%
25,COc1ccc(C(C)(CCC(=O)Nc2ncc(CN3CCOCC3)s2)c2ccc(OC)cc2)cc1,-0.403%
26,O=C(CCC(=O)n1ncc2ccc(Cl)cc21)NC1CCCC1,0.596%
27,Cc1cc(C)n2nc(CNS(=O)(=O)c3ccc4c(c3)CCCC4)nc2n1,2.84%

row,SMILES,% Inhibition @ 10 uM
1,CC(=O)Nc1ccccc1NC(=O)Nc1cccc(Cl)c1,-4.59%
2,Cc1ccc(S(=O)(=O)NCc2nc(-c3ccc(Cl)cc3)no2)cc1,-6.96%
3,Nc1ccc(-c2ccc(N)c(C(=O)O)c2)cc1C(=O)O,-1.74%
4,CCOC(=O)N1CCC(NC2CC2)CC1,-7.02%
5,Cc1cccc2c(N)c3c(nc12)N(C)CC3,-1.63%
6,COc1ccc(CC(=O)N2CCN(C)CC2)cc1,-1.93%
7,O=C(NCCCN1CCOCC1)c1ccncc1,-6.69%
8,CCOC(=O)N1CCc2c(sc3c2C(=O)NC(c2ccc(-c4cccc(C(F)(F)F)c4)o2)N3)C1 (stereo not drawn),0.778%
9,CC(C)(C)c1cc(Cc2ccccc2)no1,4.61%
10,COc1ccc(Cl)cc1NC(=O)c1ccc(C)cc1,5.43%
11,CCN(CC)c1nn2nnnc2c2ccccc12,-3%
12,CCCCOc1ccc(S(=O)(=O)N2CCOCC2)cc1,-2.56%
13,CCOc1ccc(CN2CCN(Cc3ccco3)CC2)cc1,-1.6%
14,Cc1ccc(N2C(=O)c3ccc(C(=O)NCC4CCCO4)cc3C2=O)cc1 (stereo not drawn),2.18% and -1.61%
15,CCOc1ccc(-c2csc(/C(C#N)=C\Nc3ccccc3)n2)cc1,3.53%
16,Cc1ccc(NC(=O)CSc2n[nH]c(-c3ccncc3)n2)c(C)c1,-4.36%
17,CC(Cc1c[nH]c2ccccc12)NC(=O)c1ccc(Cl)cc1 (stereo not drawn),-7.42%
18,CN(C)c1ccc(CNCCC2(O)CCOC(C)(C)C2)cc1 (stereo not drawn),5.05%
19,COc1cc(C(=O)Nc2cccc(C#N)c2)cc(OC)c1OC,-1.84%
20,O=c1c2ccccc2n2nncc2n1Cc1ccccc1F,3.7%
21,CCOC(=O)CSc1nc(O)cc(C)c1C#N,-0.736%
22,Cc1ccccc1-c1nc(CSCC(=O)N2CCOCC2)c(C)o1,-10.7%
23,CC(=O)Nc1nonc1-c1nc2ccccc2n1CCCC#N,21.3%
24,Cc1nn(-c2ccccc2)c2c1N(CC(=O)N1CCCCCC1)C(=O)CS2,-5.33%
25,Cc1ccccc1NC(=O)CC1NC2CCCCC2NC1=O (stereo not drawn),3.72%
26,CCc1cccc2c(C#N)cn(CC(=O)NCCCOC)c12,-1.84%
27,COc1ccc(C2C3=C(CCCC3=O)OC3=C2C(=O)CCC3)cc1,2.4%

row,SMILES,% Inhibition @ 10 uM
1,CC(Oc1ccccc1)C(=O)Nc1ccccn1 (stereo not drawn),4.31%
2,O=C1NC2(CCN(C(=O)Cc3ccc(F)cc3)CC2)N=C1c1ccccc1,-1.6%
3,Cc1nc2ccc(S(=O)(=O)N(C)CC(=O)NCCC(C)C)cc2s1,5.84%
4,O=C(O)c1ccc(S(=O)(=O)N2CCCC3CCCCC32)cc1 (stereo not drawn),2.73%
5,O=C(O)CCn1ccnc1-c1ccccc1,5.23%
6,CN1CCc2c(sc3c2C(=O)NC(c2ccccc2F)N3)C1 (stereo not drawn),-3.04%
7,CCN1C(=O)/C(=C/c2cccn2C)C(=O)NC1=S,5.31%
8,Nc1ccc2nc(SCc3ccc(F)cc3)sc2c1,-4.4%
9,COC(=O)Nc1ccc(S(=O)(=O)N2CCN(c3ccccc3OC)CC2)cc1,-5.13%
10,O=C(NCCNC(=O)C1CC2CCC1C2)C1CC2CCC1C2 (stereo not drawn),-0.865%
11,Oc1nc(SCCOc2ccccc2)nc2ccccc12,-2.03%
12,O=C1C2CCCCC2C(=O)N1c1ccc(F)cc1 (stereo not drawn),-2.89%
13,O=C(C1=C(O)C(=O)N(CC2CCCO2)C1c1ccc(Br)cc1)c1ccccc1 (stereo not drawn),-5.1%
14,CCOc1ccccc1C(=O)Nc1cccc(C(F)(F)F)c1,-3.74%
15,Cc1ccsc1CCNC(=O)CCCc1nnc2n(C)c(=O)c3sccc3n12,-3.01%
16,COc1ccc(C2CC(=O)N=C(N)N2)c(OC)c1OC (stereo not drawn),1.66%
17,CCCn1c(=N)c(C(=O)NCCN2CCOCC2)cc2c(=O)n3cccc(C)c3nc21,3.6%
18,O=C1c2cccc3cccc(c23)C(=O)N1n1cnnc1,3.54%
19,CSc1nc2ccccc2c(=O)n1CC1CCCCC1,-1.35%
20,CCOc1cc2c(cc1OCC)C(c1ccc(OC)c(O)c1)NCC2 (stereo not drawn),3.57%
21,CC(C)/N=C(\NS(=O)(=O)c1ccc(Cl)cc1)c1ccc(Br)cc1,-5.38%
22,COc1ccc(C(=O)C2=C(O)C(=O)N(CCCCCC(=O)O)C2c2ccc3c(c2)OCO3)cc1 (stereo not drawn),-3.02%
23,Clc1ccccc1CN1CCN(C/C=C/c2ccccc2)CC1,-0.0404%
24,CC(=O)N1CN(CCCn2ccnc2)Cc2c1sc1c2CCCC1,0.221%
